Among all 140,000 compounds or so, about 240 (0.17%) were called active. Inconclusive means that the source gave no clear call. Such entries were picked first, then a sample of the others. The call rests on the fitted dose curve; in most records, active means well fitted inhibition curve with a large enough effect; inconclusive means small, poorly fitted or top-dose-only effect; inactive means no such curve, though single readings can be large or run the other way. Potencies of inconclusive entries are doubtful fits and often do not repeat.
Test: Primary qHTS assay for inhibitors of alpha-synuclein gene (SNCA) expression; further: nearly all actives have a fitted effect of over 45% in size;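 on activity change, negative = inhibition: plate controls were DMSO cells for no effect and cell-free wells for full effect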
Conditions: HEK-293 SNCA-luciferase knock-in, luminescence, 24 h; activity change, negative = inhibition: at 57.2 µM (top of the series) unless noted
Potency means the concentration at half of the fitted maximal effect; tags describe the fitted curve by direction and shape.

Potency, inconclusive:
O=c1[nH]nc(OCCCc2ccc(Cl)cc2)c(NCc2cccnc2)c1Br 12.1 µM [inhibitor, partial curve, poor fit]
CC(C)c1nc(Cn2ncc(N3CCOC(CCN)C3)cc2=O)no1 (centres undefined) 20 µM [inhibitor, partial curve, poor fit]
CC(=O)Nc1ccc(S(=O)(=O)N2CCC(c3nnc(-c4ccc(C)cc4)o3)CC2)cc1 2.24 µM [inhibitor, full curve]
Cc1ccc(NC(=O)Cc2coc3ccc(C(C)C)cc23)c(C)c1 35.5 µM [inhibitor, partial curve]
CCNc1cc(N2CCC(CCC(=O)Nc3ccc4c(c3)OCCO4)CC2)ncn1 35.5 µM [inhibitor, partial curve, poor fit]
COc1ccc(CCNC(=O)CSc2cn(CCNC(=O)c3cccc(C(F)(F)F)c3)c3ccccc23)cc1OC 39.8 µM [inhibitor, single point]
O=C(N[C@H]1CCN2C(=O)c3cc(-c4ccccc4F)ccc3NC(=O)[C@H]12)c1cnccn1 5.01 µM [inhibitor, single point]
Cc1cncc2cccc(S(=O)(=O)N3CCCN(C(=O)CN)C[C@@H]3C)c12 7.64 µM [inhibitor, partial curve, poor fit]
O=C1OC[C@@H]2CCN(Cc3ccccc3Cl)Cc3ccc(F)cc3N12 56.2 µM [inhibitor, single point]
CC(=O)Nc1ccc(CN2CCN3C(=O)N(Cc4ccc(C)cc4)C[C@H]3C2)cc1 8.91 µM [inhibitor, full curve, poor fit]
COC(=O)C1=C(C)NC(C)=C(C(=O)OCCN(C)Cc2ccccc2)C1c1cccc([N+](=O)[O-])c1 (centres undefined) 39.8 µM [inhibitor, partial curve, poor fit]
COC(=O)c1ccc(NC(=O)CN(CCc2ccccc2)S(=O)(=O)c2ccc(OC)cc2)cc1 39.8 µM [inhibitor, single point]
CC(C)(C)CC(=O)Nc1nc2c(s1)C[C@@H]1[C@](C)(CO)[C@H](O)CC[C@@]1(C)[C@@H]2CC(=O)Nc1cccc(O)c1 17.8 µM [inhibitor, single point]
COC(=O)NC1CCN(Cc2cccc(-c3cccc(C)c3)c2)CC1 7.94 µM [inhibitor, full curve, poor fit]
COc1cccc(N2CC(C(=O)NCC(F)(F)F)NC2=O)c1 (centres undefined) 11.2 µM [inhibitor, single point]
Oc1ccc(NCCN2CCCC2)cc1 39.8 µM [inhibitor, single point]
COc1ccc(-c2ccnc(N[C@H]3CO[C@H]4[C@@H]3OC[C@@H]4NC(=O)Nc3cccc(C#N)c3)n2)cc1 39.8 µM [inhibitor, single point]
Cc1ccc2c(c1)c(=O)c1ccccc1n2CCCC(=O)Nc1cc(Cl)ccc1C 39.8 µM [inhibitor, single point]
COc1ccccc1N1CCN(c2ccc(=O)n(CC(=O)NCc3ccc(OC(C)C)cc3)n2)CC1 10 µM [inhibitor, partial curve, poor fit]
Cc1cc(-c2ccc(CC(=O)Nc3ccc(-c4cccnc4)cc3)cc2)ccn1 12.1 µM [inhibitor, single point]
O=C(c1ccncc1)N1CCC(N2C(=O)C3(CCCC3)C2c2ccccc2)CC1 (centres undefined) 22.4 µM [inhibitor, single point]
CCOC(=O)c1cccc(NC(=O)c2ccc3c(c2)N(CC)C2CCCCCN2C3=O)c1 (centres undefined) 20 µM [inhibitor, single point]
Cc1ccc(C(=O)NCc2cccnc2N(C)C2CCCCC2)cn1 4.47 µM [inhibitor, single point]
OC1CC(c2cc(N3CCC(Cc4noc(C5CC5)n4)CC3)ncn2)C1 (centres undefined) 3.55 µM [inhibitor, full curve]
COc1ccccc1C(=O)NCCn1cc(SCc2ccc(C)cc2)c2ccccc21 6.31 µM [inhibitor, partial curve, poor fit]
COc1ccc(OC)c2sc(N3CCN(C(=O)c4ccc5c(c4)CCCC5)CC3)nc12 39.8 µM [inhibitor, single point]
O=C(NCc1cccc(C(F)(F)F)c1)c1ccc2nnc(Cc3ccc(Cl)cc3)n2c1 39.8 µM [inhibitor, single point]
COCCOc1ccc2c(c1)ncn2-c1ccc2cccc(N3CCC(N)CC3)c2n1 42.9 µM [inhibitor, single point]
O=C(COc1ccc(Br)cc1Cl)Nc1ncn[nH]1 7.94 µM [inhibitor, full curve, poor fit]
COc1ccccc1NC(=O)CC1CCCN(c2cnn(CC3CC3)c(=O)c2)C1 (centres undefined) 15.8 µM [inhibitor, partial curve, poor fit]
N#CC1CCN(C(=O)C2CCN(c3nccc(Nc4ccccc4F)n3)CC2)CC1 25.1 µM [inhibitor, single point]
O=C(Nc1ccc(Br)cc1)c1ccc(F)c(S(=O)(=O)N2CCCc3ccccc32)c1 39.8 µM [inhibitor, single point]
CC(C)NC(=O)c1ccc(-n2c(-c3ccccc3)cc3c2CCCC3)cc1 39.8 µM [inhibitor, single point]
CCc1ccc(NC(=O)CSc2nc(-c3ccccc3Cl)nc3c2Cc2c(CO)cnc(C)c2O3)cc1 10 µM [inhibitor, partial curve, poor fit]
O=C(Cc1c[nH]c2ncc(-c3ccccc3F)cc12)NCc1cccnc1 6.31 µM [inhibitor, full curve, poor fit]
CNc1ncccc1C(=O)N1CC[C@@H](c2ccc3c(c2)OCO3)[C@H](O)C1 39.8 µM [inhibitor, single point]
O=C(C1CC1)N1CCC(Cc2nncn2-c2ccccc2)C1 (centres undefined) 0.708 µM [inhibitor, full curve, poor fit]
O=C(NCc1ccccc1)N1CC[C@H]2COC(=O)N2c2cc(F)ccc2C1 12.6 µM [inhibitor, single point]
CCc1ccc(N2CC(c3nc4ccccc4n3Cc3ccccc3C)CC2=O)cc1 (centres undefined) 22.4 µM [inhibitor, single point]
CCc1ccccc1NS(=O)(=O)c1ccc2[nH]cc(C(=O)NC3CCCC3)c(=O)c2c1 39.8 µM [inhibitor, single point]
c1ccc2sc([C@H]3CCN(C4CCC4)C3)nc2c1 63.1 µM [inhibitor, single point]
CCCN(CC1CCOC1)S(=O)(=O)c1ccc2c(c1)CCCC2 (centres undefined) 39.8 µM [inhibitor, single point]

Potency, active:
COc1ccc(C2CC(c3ccccc3)=NN2c2ccc(S(N)(=O)=O)cc2)cc1 (centres undefined) 13.6 µM

Activity change, negative = inhibition, inactive:
CNC(=O)[C@@H](Cc1ccccc1)N1CCC[C@H]1C(=O)NCc1cccnc1 1.09% [at 87.6 µM]
O=C(c1cc(C2CC2)nc2onc(C3CCCNC3)c12)N1CCOCC1 (centres undefined) -8.75%
COc1ccc(-c2cc(N3CCC(NC(=O)Cc4ccc(F)cc4)CC3)n[nH]2)cc1 -11.5%
COCC(=O)N1CCN2C(=O)c3cc(-c4ccc(OC)cc4)ccc3NC(=O)[C@H]2C1 7.47% [at 87.6 µM]
CCc1noc(-c2ccn3c(CNC(=O)c4cc(F)cc(F)c4)nnc3c2)n1 -26.3%
O[C@@H]1C[C@@H](c2nc(-c3ccccc3)no2)N(Cc2ccncc2)C1 118% [at 87.6 µM]
COc1ccc(NC(=O)NCC2Cn3cccc3CN2Cc2ccccc2)cc1 (centres undefined) 2.99%
CCn1c2c(c(=O)n1-c1ccccc1)CCN(C(=O)CCc1cccnc1)C2 2.04% [at 87.6 µM]
O=C(NCc1ccc(Cl)cc1)c1ccc2cc[nH]c2n1 32.7% [at 87.6 µM]
O=C(N[C@@H]1C[C@H](Cn2cc(CN3CCS(=O)(=O)CC3)nn2)[C@@H](O)[C@H]1O)c1cncnc1 -12.8%
Cc1nn(CC(=O)NCc2ccc(Cl)cc2)c(=O)c2cc3sccc3n12 3.87%
Cc1ccc(N2CCN(S(=O)(=O)c3cc(C(=O)Nc4cc(Cl)cc(Cl)c4)ccc3F)CC2C)cc1 (centres undefined) -22.5%
COc1ccc(Nc2ccnc(N3CCCC(C(=O)NCC(F)(F)F)C3)n2)cc1 (centres undefined) 2.62%
CCCOc1nccnc1NC1CCN(S(=O)(=O)CC)CC1 13.1%
OC[C@@H]1O[C@H](CN(Cc2cccc(Cl)c2)Cc2cccc(Cl)c2)[C@H](N2CCN(c3ccccn3)CC2)[C@@H]1O -1.85%
CCC(C(=O)Nc1ccc2c(c1)CN(Cc1ccccc1Cl)C(=O)C(C)O2)c1ccccc1 (centres undefined) -19.1%
COCCn1cc2c3c(cccc31)CN(C(=O)CCc1ccccc1OC)CC2 10.1%
CNC(=O)CCn1ncc2cc(OCc3ccccc3-c3ccc(OC)cc3)ccc21 4.73% [at 87.6 µM]
COc1cccc(C(=O)N2CCOc3ccc(CN4CCCCC4)cc3C2)c1 1.03%
Cc1csc(NC(=O)[C@@H]2C[C@H](c3cccc(C(F)(F)F)c3)N(Cc3cnn(C)c3)C2)n1 -24.9%
O=C(NC1CCCN(c2cc(-c3ccc(F)cc3)[nH]n2)C1)c1ccncc1 (centres undefined) -17%
